We go through eight molecules from patent publication US20100260668A1 (published 2010).

Assay [1] has as its target T1, HGF-His tag (UniProt P14210 32-728).
T1 construct: Bought antigen coated on the ELISA plate; not shown: His tag
Nature of the assay: direct bind ELISA (N-term VD).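 Further: ELISA screen of antibodies for binding to plate-immobilized target antigen.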

Assay [2] concerns the target T2, VEGF 1-165 aa (UniProt P15692 27-191).
T2 construct: Bought antigen coated on the ELISA plate
T2 sequence (looked up): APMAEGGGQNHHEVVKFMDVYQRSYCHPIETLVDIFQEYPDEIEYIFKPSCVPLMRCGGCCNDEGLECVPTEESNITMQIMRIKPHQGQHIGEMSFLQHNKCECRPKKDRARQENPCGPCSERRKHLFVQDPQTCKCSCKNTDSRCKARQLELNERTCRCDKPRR
The experiment in a line: direct bind ELISA (C-term VD). In general terms: ELISA stands for enzyme-linked immunosorbent assay.

Assay [3] addresses T3, DLL ECD His tag (UniProt Q9NR61 fragment, limits assumed).
T3 construct: extracellular domain; Bought reagent; also called DLL4; DLL-4; not shown: His tag
The experiment in a line: Biacore SPR.

As a reminder, the EC50 is the concentration giving half of the maximal effect. A lower EC50 goes with an effect from little substance. The term Kd denotes the free concentration of one partner at which half of the binding sites on the other are occupied at equilibrium, for simple one-to-one binding. A high value points to a looser complex. A word on the koff: it is the rate constant with which the complex falls apart. Low values mean a long-lived complex, high ones a short-lived complex. The kon is the rate constant with which the complex forms. Read a low kon as slow association.

T1 sequence (P14210 32-728 limits assumed): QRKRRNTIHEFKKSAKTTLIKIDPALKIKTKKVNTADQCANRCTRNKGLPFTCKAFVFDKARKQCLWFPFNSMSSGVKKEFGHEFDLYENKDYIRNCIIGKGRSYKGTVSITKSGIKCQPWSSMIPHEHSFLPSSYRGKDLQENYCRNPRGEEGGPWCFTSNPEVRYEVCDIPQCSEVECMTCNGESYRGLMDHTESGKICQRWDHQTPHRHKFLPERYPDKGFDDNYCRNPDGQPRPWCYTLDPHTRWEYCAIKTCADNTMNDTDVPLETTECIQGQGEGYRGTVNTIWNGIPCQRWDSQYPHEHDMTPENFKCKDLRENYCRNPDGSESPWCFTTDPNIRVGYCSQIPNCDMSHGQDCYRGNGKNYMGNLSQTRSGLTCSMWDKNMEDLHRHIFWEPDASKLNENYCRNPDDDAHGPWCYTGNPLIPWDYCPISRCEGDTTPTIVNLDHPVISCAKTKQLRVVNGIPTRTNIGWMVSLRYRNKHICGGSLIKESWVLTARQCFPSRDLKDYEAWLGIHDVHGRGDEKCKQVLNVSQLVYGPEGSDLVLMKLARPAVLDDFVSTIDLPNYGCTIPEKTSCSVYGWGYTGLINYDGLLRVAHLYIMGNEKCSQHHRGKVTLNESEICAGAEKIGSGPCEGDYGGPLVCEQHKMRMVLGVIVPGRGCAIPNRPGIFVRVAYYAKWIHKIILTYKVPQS

B1: DVD665 (bispecific antibody, human IgG1, kappa)
heavy: EVQLVQSGAEVKKPGESLKISCKGSGYSFTTYWMHWVRQMPGKGLEWMGEINPTNGHTNYNPSFQGQVTISADKSISTAYLQWSSLKASDTAMYYCARNYVGSIFDYWGQGTLVTVSSASTKGPSVFPLAPEVQLVESGGGLVQPGGSLRLSCAASGYTFTNYGMNWVRQAPGKGLEWVGWINTYTGEPTYAADFKRRFTFSLDTSKSTAYLQMNSLRAEDTAVYYCAKYPHYYGSSHWYFDVWGQGTLVTVSS[omitted - human IgG1 constant region]
light: DIQMTQSPSSLSASVGDRVTITCKASENVVSYVSWYQQKPGKAPKLLIYGASNRNTGVPSRFSGSGSGTDFTLTISSLQPEDFATYYCGQSYNYPYTFGQGTKLEIKRTVAAPSVFIFPPDIQMTQSPSSLSASVGDRVTITCSASQDISNYLNWYQQKPGKAPKVLIYFTSSLHSGVPSRFSGSGSGTDFTLTISSLQPEDFATYYCQQYSTVPWTFGQGTKVEIKRTVAAPSVFIFPPSDEQLKSGTASVVCLLNNFYPREAKVQWKVDNALQSGNSQESVTEQDSKDSTYSLSSTLTLSKADYEKHKVYACEVTHQGLSSPVTKSFNRGEC
notes: DVD-Ig; HC linker long, LC linker long; vectors V1/V2
Consider B1, for which the EC50 in assay [1] is 0.23 nM; in assay [2], 8.09 nM.

B2: DVD641 (bispecific antibody, human IgG1, kappa)
heavy: QVQLVESGGGLVKPGGSLRLSCAASGFTFSDYYMSWIRQAPGKGLEWVSYISSSGSTIYYADSVKGRFTISRDNAKNSLYLQMNSLRAEDTAVYYCARDEYNSGWYVLFDYWGQGTLVTVSSASTKGPSVFPLAPEVQLVESGGGLVQPGGSLRLSCAASGYTFTNYGMNWVRQAPGKGLEWVGWINTYTGEPTYAADFKRRFTFSLDTSKSTAYLQMNSLRAEDTAVYYCAKYPHYYGSSHWYFDVWGQGTLVTVSS[omitted - human IgG1 constant region]
light: DIQMTQSPSSVSASVGDRVTITCRASQGISSWLAWYQQKPGKAPNLLIYEASSLQSGVPSRFGGSGSGTDFTLTISSLQPEDFATYYCQQANGFPWTFGQGTKVEIKRTVAAPSVFIFPPDIQMTQSPSSLSASVGDRVTITCSASQDISNYLNWYQQKPGKAPKVLIYFTSSLHSGVPSRFSGSGSGTDFTLTISSLQPEDFATYYCQQYSTVPWTFGQGTKVEIKRTVAAPSVFIFPPSDEQLKSGTASVVCLLNNFYPREAKVQWKVDNALQSGNSQESVTEQDSKDSTYSLSSTLTLSKADYEKHKVYACEVTHQGLSSPVTKSFNRGEC
notes: as for B1
On to B2, for which the EC50 in assay [1] came to 0.47 nM; in assay [2], 41.5 nM.

B3: DVD653 (bispecific antibody, human IgG1, kappa)
heavy: QVQLVESGGGLVKPGGSLRLSCAASGFTFSDYYMSWIRQAPGKGLEWVSYISSSGSTIYYADSVKGRFTISRDNAKNSLYLQMNSLRAEDTAVYYCARDEYNSGWYVLFDYWGQGTLVTVSSASTKGPEVQLVESGGGLVQPGGSLRLSCAASGYTFTNYGMNWVRQAPGKGLEWVGWINTYTGEPTYAADFKRRFTFSLDTSKSTAYLQMNSLRAEDTAVYYCAKYPHYYGSSHWYFDVWGQGTLVTVSS[omitted - human IgG1 constant region]
light: DIQMTQSPSSVSASVGDRVTITCRASQGISSWLAWYQQKPGKAPNLLIYEASSLQSGVPSRFGGSGSGTDFTLTISSLQPEDFATYYCQQANGFPWTFGQGTKVEIKRTVAAPSVFIFPPDIQMTQSPSSLSASVGDRVTITCSASQDISNYLNWYQQKPGKAPKVLIYFTSSLHSGVPSRFSGSGSGTDFTLTISSLQPEDFATYYCQQYSTVPWTFGQGTKVEIKRTVAAPSVFIFPPSDEQLKSGTASVVCLLNNFYPREAKVQWKVDNALQSGNSQESVTEQDSKDSTYSLSSTLTLSKADYEKHKVYACEVTHQGLSSPVTKSFNRGEC
notes: DVD-Ig; HC linker short, LC linker long; vectors V1/V2
With B3, the EC50 in assay [1] was 0.24 nM; in assay [2], 16.8 nM.

B4: DVD647 (bispecific antibody, human IgG1, kappa)
heavy: QVQLVESGGGLVKPGGSLRLSCAASGFTFSDYYMSWIRQAPGKGLEWVSYISSSGSTIYYADSVKGRFTISRDNAKNSLYLQMNSLRAEDTAVYYCARDEYNSGWYVLFDYWGQGTLVTVSSASTKGPSVFPLAPEVQLVESGGGLVQPGGSLRLSCAASGYTFTNYGMNWVRQAPGKGLEWVGWINTYTGEPTYAADFKRRFTFSLDTSKSTAYLQMNSLRAEDTAVYYCAKYPHYYGSSHWYFDVWGQGTLVTVSS[omitted - human IgG1 constant region]
light: DIQMTQSPSSVSASVGDRVTITCRASQGISSWLAWYQQKPGKAPNLLIYEASSLQSGVPSRFGGSGSGTDFTLTISSLQPEDFATYYCQQANGFPWTFGQGTKVEIKRTVAAPDIQMTQSPSSLSASVGDRVTITCSASQDISNYLNWYQQKPGKAPKVLIYFTSSLHSGVPSRFSGSGSGTDFTLTISSLQPEDFATYYCQQYSTVPWTFGQGTKVEIKRTVAAPSVFIFPPSDEQLKSGTASVVCLLNNFYPREAKVQWKVDNALQSGNSQESVTEQDSKDSTYSLSSTLTLSKADYEKHKVYACEVTHQGLSSPVTKSFNRGEC
notes: DVD-Ig; HC linker long, LC linker short; vectors V1/V2
For the molecule B4, the half-maximal effective concentration (EC50) in assay [1] was 0.15 nM; in assay [2] it was 25.4 nM.

B5: DVD044 (bispecific antibody, human IgG1, kappa)
heavy: EVQLVESGGGLVQPGGSLRLSCAASGFTFTDNWISWVRQAPGKGLEWVGYISPNSGFTYYADSVKGRFTISADTSKNTAYLQMNSLRAEDTAVYYCARDNFGGYFDYWGQGTLVTVSSASTKGPEVQLVESGGGLVQPGGSLRLSCAASGYTFTNYGMNWVRQAPGKGLEWVGWINTYTGEPTYAADFKRRFTFSLDTSKSTAYLQMNSLRAEDTAVYYCAKYPHYYGSSHWYFDVWGQGTLVTVSS[omitted - human IgG1 constant region]
light: DIQMTQSPSSLSASVGDRVTITCRASQDVSTAVAWYQQKPGKAPKLLIYSASFLYSGVPSRFSGSGSGTDFTLTISSLQPEDFATTYYCQQSYTGTVTFGQGTKVEIKRTVAAPDIQMTQSPSSLSASVGDRVTITCSASQDISNYLNWYQQKPGKAPKVLIYFTSSLHSGVPSRFSGSGSGTDFTLTISSLQPEDFATYYCQQYSTVPWTFGQGTKVEIKRTVAAPSVFIFPPSDEQLKSGTASVVCLLNNFYPREAKVQWKVDNALQSGNSQESVTEQDSKDSTYSLSSTLTLSKADYEKHKVYACEVTHQGLSSPVTKSFNRGEC
notes: N-terminal VD DLL4, C-terminal VD VEGF; also called DVD044H; DVD044L
In assay [3], B5 registered a Kd of 0.347 nM, an off-rate (koff) of 0.000205 s⁻¹ and a kon of 590000 M⁻¹ s⁻¹.

B6: DVD659 (bispecific antibody, human IgG1, kappa)
heavy: EVQLVQSGAEVKKPGESLKISCKGSGYSFTTYWMHWVRQMPGKGLEWMGEINPTNGHTNYNPSFQGQVTISADKSISTAYLQWSSLKASDTAMYYCARNYVGSIFDYWGQGTLVTVSSASTKGPEVQLVESGGGLVQPGGSLRLSCAASGYTFTNYGMNWVRQAPGKGLEWVGWINTYTGEPTYAADFKRRFTFSLDTSKSTAYLQMNSLRAEDTAVYYCAKYPHYYGSSHWYFDVWGQGTLVTVSS[omitted - human IgG1 constant region]
light: DIQMTQSPSSLSASVGDRVTITCKASENVVSYVSWYQQKPGKAPKLLIYGASNRNTGVPSRFSGSGSGTDFTLTISSLQPEDFATYYCGQSYNYPYTFGQGTKLEIKRTVAAPDIQMTQSPSSLSASVGDRVTITCSASQDISNYLNWYQQKPGKAPKVLIYFTSSLHSGVPSRFSGSGSGTDFTLTISSLQPEDFATYYCQQYSTVPWTFGQGTKVEIKRTVAAPSVFIFPPSDEQLKSGTASVVCLLNNFYPREAKVQWKVDNALQSGNSQESVTEQDSKDSTYSLSSTLTLSKADYEKHKVYACEVTHQGLSSPVTKSFNRGEC
notes: DVD-Ig; HC linker short, LC linker short; vectors V1/V2
With B6, the half-maximal effective concentration (EC50) in assay [1] was found to be 0.4 nM; in assay [2], 161 nM.

B7: DVD677 (bispecific antibody, human IgG1, kappa)
heavy: EVQLVQSGAEVKKPGESLKISCKGSGYSFTTYWMHWVRQMPGKGLEWMGEINPTNGHTNYNPSFQGQVTISADKSISTAYLQWSSLKASDTAMYYCARNYVGSIFDYWGQGTLVTVSSASTKGPEVQLVESGGGLVQPGGSLRLSCAASGYTFTNYGMNWVRQAPGKGLEWVGWINTYTGEPTYAADFKRRFTFSLDTSKSTAYLQMNSLRAEDTAVYYCAKYPHYYGSSHWYFDVWGQGTLVTVSS[omitted - human IgG1 constant region]
light: DIQMTQSPSSLSASVGDRVTITCKASENVVSYVSWYQQKPGKAPKLLIYGASNRNTGVPSRFSGSGSGTDFTLTISSLQPEDFATYYCGQSYNYPYTFGQGTKLEIKRTVAAPSVFIFPPDIQMTQSPSSLSASVGDRVTITCSASQDISNYLNWYQQKPGKAPKVLIYFTSSLHSGVPSRFSGSGSGTDFTLTISSLQPEDFATYYCQQYSTVPWTFGQGTKVEIKRTVAAPSVFIFPPSDEQLKSGTASVVCLLNNFYPREAKVQWKVDNALQSGNSQESVTEQDSKDSTYSLSSTLTLSKADYEKHKVYACEVTHQGLSSPVTKSFNRGEC
notes: as for B3
B7: the EC50 in assay [1] was 0.33 nM; in assay [2], 1.02 nM.

B8: DVD671 (bispecific antibody, human IgG1, kappa)
heavy: EVQLVQSGAEVKKPGESLKISCKGSGYSFTTYWMHWVRQMPGKGLEWMGEINPTNGHTNYNPSFQGQVTISADKSISTAYLQWSSLKASDTAMYYCARNYVGSIFDYWGQGTLVTVSSASTKGPSVFPLAPEVQLVESGGGLVQPGGSLRLSCAASGYTFTNYGMNWVRQAPGKGLEWVGWINTYTGEPTYAADFKRRFTFSLDTSKSTAYLQMNSLRAEDTAVYYCAKYPHYYGSSHWYFDVWGQGTLVTVSS[omitted - human IgG1 constant region]
light: DIQMTQSPSSLSASVGDRVTITCKASENVVSYVSWYQQKPGKAPKLLIYGASNRNTGVPSRFSGSGSGTDFTLTISSLQPEDFATYYCGQSYNYPYTFGQGTKLEIKRTVAAPDIQMTQSPSSLSASVGDRVTITCSASQDISNYLNWYQQKPGKAPKVLIYFTSSLHSGVPSRFSGSGSGTDFTLTISSLQPEDFATYYCQQYSTVPWTFGQGTKVEIKRTVAAPSVFIFPPSDEQLKSGTASVVCLLNNFYPREAKVQWKVDNALQSGNSQESVTEQDSKDSTYSLSSTLTLSKADYEKHKVYACEVTHQGLSSPVTKSFNRGEC
notes: as for B4
For the molecule B8, the EC50 in assay [1] came to 0.35 nM; in assay [2], 28.8 nM.
